According to PubChem BioAssay AID1865 (National Center for Advancing Translational Sciences (NCATS), 2009):
The whole screen tested about 280,000 compounds, of which about 540 (0.19%) were called active. This list was built around the results that the source calls inconclusive (neither active nor inactive); the mix of calls is not that of the screen. Calls follow the shape of the dose curve; as a rule, active = well fitted activation curve with a large enough effect; inconclusive = small, poorly fitted or top-dose-only effect; inactive = flat fitted curve, though single readings scatter. Potencies beside an inconclusive call are fits to weak or partial responses and may not hold up.
Potency is read from the fitted curve at half-maximal effect; tags tell the direction and shape of the fitted curve.

Assay: Quantitative High-Throughput Screen for Regulators of Epigenetic Control; also: nearly all actives have a fitted effect of over 60% in size; as to GFP activation: % of control where 0% means no effect
Details: murine LDR cells, GFP reporter derepression, 30 h; GFP activation: at 53.9 µM (top of the series)
How it was run: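 Murine LDR cells carrying a silenced, genomically integrated CMV-driven GFP reporter were exposed to compound for 30 hours at 37 C. After PBS washes, GFP-positive cells (20–120 um objects) were counted by laser-scanning microplate cytometry.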
With `Cc1cc(C)c(S(=O)(=O)NCC(c2ccc(N(C)C)cc2)N2CCc3ccccc32)c(C)c1` (stereo not given) the “GFP activation” value was inactive: 10%. For `CCOc1ccc(/C=N/n2cc(-c3ccccc3)[nH]c2=S)cc1`, the Potency was inconclusive: 25.1 µM [activator, single point]. With `CCCN(C(=O)Cn1c(=O)oc2cc(Cl)ccc21)c1ccc(C(C)C)cc1` the “GFP activation” value was inactive: -4.78%. In the case of `S=C(Nc1ccccc1)Nc1ccc2cn[nH]c2c1`, the “GFP activation” value was inactive: 0%. For `Brc1cccc(/C=N\n2cnnc2)c1`, the Potency was inconclusive: 25.1 µM [activator, single point]. With `CCSc1nnc(NC(=O)CSc2c(Cl)cccc2Cl)s1` the “GFP activation” value was inactive: 0.0903%. With `CC(C)CN1C(=O)/C(=C/c2c(N3CCc4ccccc4C3)nc3ccccn3c2=O)SC1=S` the Potency was active: 4.47 µM. With `Cc1cc(OCC(=O)Nc2nnc(C3CC3)s2)ccc1[N+](=O)[O-]` the Potency was inconclusive: 31.6 µM [activator, single point]. For `CCN(CC)C(=O)CSc1nnc(CCCCCNC(=O)OC(C)(C)C)o1`, the Potency was inconclusive: 2.82 µM [activator, partial curve]. In the case of `O=C(O)CSc1cccc2cccnc12`, the Potency was active: 17.8 µM. For `COc1ccc(Cn2c3nc4ccccc4nc3c3c(=O)n(Cc4ccco4)c(C)nc32)cc1`, the Potency was inconclusive: 31.6 µM [activator, single point]. In the case of `CC(C)c1ccc(/C=C2\CC/C(=C\C=N\N(C)C)C2=O)cc1`, the Potency was inconclusive: 31.6 µM [activator, single point]. In the case of `CC(C)NC[C@@H](O)c1ccc(O)c(O)c1`, the “GFP activation” value was inactive: -0.0737%. For `CN1CCc2cccc3c2[C@@H]1Cc1ccc(O)c(O)c1-3`, the Potency was “inactive”. In the case of `Cc1c(/C(O)=C2/C(=O)C(=O)N(Cc3cccnc3)C2c2cccs2)cnn1-c1ccccc1` (stereo not given), the “GFP activation” value was inactive: -0.98%. For `CCCC[C@@H]1CN=C(N)N1CCc1cc(C(F)(F)F)cc(C(F)(F)F)c1`, the Potency was inconclusive: 22.4 µM [activator, single point]. In the case of `Cc1ccc2nc3c(cc(S(=O)(=O)c4ccccc4)c(=N)n3Cc3ccco3)c(=O)n2c1`, the Potency was inconclusive: 22.4 µM [activator, single point]. For `N#C/C(=C/C=C/c1ccccc1)C(=O)Nc1ccccc1`, the Potency was inconclusive: 25.1 µM [activator, single point]. In the case of `CC(C)CSc1ccccc1NC(=O)c1sc2nc(-c3ccncc3)ccc2c1N`, the Potency was inconclusive: 14.1 µM [activator, single point]. For `COc1cc2nc(SCC(=O)Nc3cccc(C)c3)n3nc(CCn4c(C)nc5ccccc54)nc3c2cc1OC`, the Potency was inconclusive: 22.4 µM [activator, single point].
